# Test results from PubChem BioAssay AID624296 (National Center for Advancing Translational Sciences (NCATS), 2012).
# Hit rate of the full screen: of about 350,000 compounds, about 9,900 (2.8%) were called active. The shares of active, inactive and inconclusive entries below differ from those in the screen. Calls follow the shape of the dose curve; as a rule, active = well fitted activation curve with a large enough effect; inconclusive = small, poorly fitted or top-dose-only effect; inactive = no such curve, though single readings can be large or run the other way. Potencies of inconclusive entries are left out as doubtful fits.
# Assay: A quantitative high throughput screen for small molecules that induce DNA re-replication in MCF 10a normal breast cells. Also: nearly all actives have a fitted effect of over 50% in size.
# Conditions: MCF 10A DNA re-replication, Hoechst nuclear intensity, 48 h; series mostly up to 46.1 µM
# Potency is read from the fitted curve at half-maximal effect; tags tell the direction and shape of the fitted curve.
row,Structure (SMILES),Potency
1,CC(=O)N1c2ccc(S(=O)(=O)NCCC(=O)N(C)C3CCCCC3)cc2CC1C (centres undefined),"inconclusive [activator, single point]"
2,Oc1cccc(-c2nc3c4c(ncn3n2)-c2ccccc2CC42CCCC2)c1,active: 2.06 µM
3,CCOc1ccc(C2C(=O)N(C3CCCCC3)CC(=O)N2CC2CCCO2)cc1OC (centres undefined),inactive
4,O=C(CNC(=O)OCc1ccccc1)OC(c1ccccc1)c1ccccc1,inactive
5,Cc1ccc(Nc2c(-c3ccccc3)nc3cnccn23)cc1,active: 23.1 µM
6,O=C(NCCS(=O)(=O)N1CCN(c2ccc(F)cc2)CC1)c1ccco1,"inconclusive [activator, partial curve, poor fit]"
7,CCN1CCN(CCNC(=O)CCCCCn2c(=O)[nH]c3cc(C(=O)OC)ccc3c2=O)CC1,"inconclusive [activator, full curve, poor fit]"
8,Cc1cc(=O)oc2c3c(cc(OCC(=O)N[C@@H](C)C(=O)O)c12)OC(C)(C)CC3,"inconclusive [activator, single point]"
9,O=c1[nH]c(CN2CCN(S(=O)(=O)/C=C/c3ccccc3)CC2)nc2cc(Cl)ccc12,active: 18.4 µM
10,CCNC(=S)N/N=C(\C)c1cc2ccccc2o1,inactive
11,O=C(CCC1COc2ccccc2O1)Nc1ncccc1O (centres undefined),inactive
12,CC1CC(C)CN(C(=O)C(C)N2CCN(S(=O)(=O)c3ccc(Br)s3)CC2)C1 (centres undefined),"inconclusive [activator, partial curve, poor fit]"
13,COc1ccc(NC(=O)c2cc3c(s2)CCC(C)C3)cc1S(=O)(=O)N1CCOCC1 (centres undefined),"inconclusive [activator, partial curve, poor fit]"
14,Cc1ccc(C)c2[nH]c(=O)c(CCNC(=O)c3cc4ccccc4o3)cc12,inactive
15,CCOC(=O)C(C)On1c(-c2cccc(Cl)c2)nc2ccc([N+](=O)[O-])cc21 (centres undefined),"inconclusive [activator, single point]"
16,Cc1ccc(/C=N/NC(=O)CSc2nnc(-c3ccc(Cl)cc3)n2-c2ccccc2)o1,"inconclusive [activator, full curve, poor fit]"
17,COC(=O)CSC1=NS(=O)(=O)c2ccccc21,active: 13 µM
18,NC(=O)CN1CCN(Cc2ccc3c(c2)OCO3)CC1,"inconclusive [activator, partial curve, poor fit]"
19,CCN(CC)S(=O)(=O)c1cccc(NC(=O)CNc2cccc(S(=O)(=O)N3CCCC3)c2)c1,"inconclusive [activator, single point]"
20,Nc1nnnn1/N=C/c1cccc(OCc2ccccc2Cl)c1,"inconclusive [activator, single point]"
21,COc1ccc(CCNC(=S)N2CCC(C(=O)c3ccc(F)cc3)CC2)cc1OC,inactive
22,Cc1noc(C)c1C(=O)Nc1nc(-c2ccc(F)c(F)c2)cs1,inactive
23,COc1ccc(-c2nc(N)nc(C(F)(F)F)c2-c2cscn2)c(O)c1,inactive

row,Structure (SMILES),Potency
1,Nc1nc(Sc2c([N+](=O)[O-])cc(C(F)(F)F)cc2[N+](=O)[O-])n[nH]1,"inconclusive [activator, single point]"
2,CC(=O)N1CCC(C(=O)Nc2ccc(S(=O)(=O)N3CCCC(C)C3)cc2)CC1 (centres undefined),"inconclusive [activator, partial curve, poor fit]"
3,CC(O)[C@H]1CN=C(N)N1CCCCC1CCCCC1 (some centres undefined),inactive
4,COc1ccc(-c2cc(-c3nnc(-c4ccncc4)o3)c3ccccc3n2)cc1,"inconclusive [activator, single point]"
5,CCN1C(=O)[C@H]2[C@@H](c3ccc(Cl)cc3)N3C(=O)CN(Cc4ccccc4)C(=O)[C@@]3(C)[C@H]2C1=O,"inconclusive [activator, partial curve, poor fit]"
6,Cc1ccc(C)n1-c1ccc(C(=O)NN)cc1,inactive
7,Cc1cc2nc3c(=O)n(C4CCCCC4)c(=O)[nH]c3nc2cc1N,"inconclusive [activator, single point]"
8,CCN(CC)CC#CCC(O)(c1ccccc1)c1ccc(Br)cc1 (centres undefined),"inconclusive [activator, single point]"
9,CCOc1cc(/C=N/NC(N)=S)cc(Br)c1OCc1ccccc1C,"inconclusive [activator, single point]"
10,C/C(=N\NC(=O)CNc1cccc2ccccc12)c1ccccc1,"inconclusive [activator, single point]"
11,Cc1ccc(S(=O)(=O)N2CCN(CCc3ccccc3)CC2)c(C)c1,"inconclusive [activator, partial curve, poor fit]"
12,CCCCCCCCCCCCN1[C@@H](CC(=O)O)c2cc(C(F)(F)F)ccc2S1(=O)=O,active: 16.4 µM
13,O=C(c1ccco1)N1CCN(C(=O)C2CC(c3ccccc3F)=NO2)CC1 (centres undefined),inactive
14,Cc1ccc(N(C)S(=O)(=O)c2csc(C(N)=O)c2)cc1C,"inconclusive [activator, single point]"
15,CCC(C)NS(=O)(=O)c1ccc(NC(=O)C(Sc2ccccc2)c2ccccc2)cc1 (centres undefined),"inconclusive [activator, single point]"
16,CC1CC2CCCC(O)=C2C(=O)O1 (centres undefined),inactive
17,Cc1cccc(NC(=S)N(CCN(C)C)Cc2cc3cc(C)ccc3[nH]c2=O)c1,"inconclusive [activator, partial curve, poor fit]"
18,Nc1cc(N)nc(SCC(=O)NC(=O)NC2CCCC2)n1,inactive
19,COc1ccc(C(=O)Nc2cc3c4c(c2)C(C)C(=O)N4CCC3)c(OC)c1 (centres undefined),inactive
20,O=C(OCC#Cc1c(COC(=O)c2ccccc2)nnn1Cc1ccccc1)c1ccccc1,"inconclusive [activator, partial curve, poor fit]"
21,CC1(C)Cc2c(sc(NC(=O)COc3ccc(Cl)cc3)c2C(N)=O)C(C)(C)N1,inactive
22,O=C(C1CCN(S(=O)(=O)N2CCOCC2)CC1)N1CCN(Cc2ccc3c(c2)OCO3)CC1,"inconclusive [activator, partial curve, poor fit]"
23,CCCC(=O)Oc1ccc(C2NC(=O)c3ccccc3O2)cc1OC (centres undefined),inactive

row,Structure (SMILES),Potency
1,CCOC(=O)c1ccc(N=C2S/C(=C\c3cc(C)n(-c4cccnc4)c3C)C(=O)N2C)cc1,"inconclusive [activator, single point]"
2,C=CCN(C(=O)CSc1nc2c(sc3ccccc32)c(=O)n1CCN(CC)CC)c1ccccc1,"inconclusive [activator, single point]"
3,O=C1c2cccc(OCC(=O)N3CCCc4ccccc43)c2CCN1Cc1ccccc1,inactive
4,CCOC(=O)c1cc(-c2ccccc2)n(CCC(=O)N2CCN(c3ccccc3OC)CC2)c1C,"inconclusive [activator, single point]"
5,COc1cc(CCC(C)=O)ccc1OC(=O)c1c(F)cccc1Cl,inactive
6,COCCCNC(=S)NCCNc1nc2c(C)c(C)ccc2cc1C#N,active: 23.1 µM
7,O=C(N/N=C/c1cccc([N+](=O)[O-])c1)c1cc(-c2ccc3c(c2)OCO3)n[nH]1,active: 11.6 µM
8,COc1cc(CNCc2c[nH]c3ccccc23)cc(OC)c1,"inconclusive [activator, partial curve, poor fit]"
9,CCSc1nnc(NC(=O)CSc2nnc(CNC(=O)c3ccc(OC)c(OC)c3)o2)s1,inactive
10,CC(C(=O)Nc1ccc(F)c(F)c1F)N(C)CCOc1ccccc1 (centres undefined),inactive
11,Cc1cc(-c2ccco2)n(-c2ccccc2)n1,"inconclusive [activator, partial curve, poor fit]"
12,COc1ccccc1Nc1nc(N)nc(CSC(=S)N2CCCCC2C)n1 (centres undefined),"inconclusive [activator, partial curve, poor fit]"
13,N#Cc1cccc(NC(=O)CSc2sc3c(O)cc(=O)[nH]c3c2C#N)c1,"inconclusive [activator, full curve, poor fit]"
14,N#Cc1c(-c2ccccc2)cc(C2CC2)nc1SCC(=O)O,inactive
15,c1ccc(C2Nc3ccccc3-c3nc4ccccc4n32)nc1 (centres undefined),"inconclusive [activator, single point]"
16,COC(=O)Cc1ccc(NC(=S)NCCSc2ccc(Cl)cc2)cc1,"inconclusive [activator, single point]"
17,CCc1nc(N2CCN(C(=O)c3ccccc3)CC2)c2c3c(sc2n1)CCCC3,"inconclusive [activator, single point]"
18,Cc1cccc(C2=NC(C(F)(F)F)(C(F)(F)F)c3c(n(-c4ccc(F)cc4)c(=O)[nH]c3=O)N2)c1,"inconclusive [activator, single point]"
19,O=C(Cc1cccc2ccccc12)Nc1ccc(-c2cc3ccccc3oc2=O)cc1,"inconclusive [activator, full curve, poor fit]"
20,CCOc1ccccc1Nc1cc(C)nc2nc(C)nn12,inactive
21,CCCNC(=O)c1ccc(N2CC3CC(C2)c2cccc(=O)n2C3)c(NC(=O)Nc2ccc(CC)cc2)c1 (centres undefined),"inconclusive [activator, partial curve, poor fit]"
22,Nc1ncnc2c1ncn2[C@@H]1O[C@H](CNC(=O)[C@@H](N)Cc2ccc(C(F)(F)F)cc2)[C@@H](O)[C@H]1O,inactive
23,Cc1cccc(NC(=O)N2C3CCCC2CC(NC(=O)C(C)(C)C)C3)c1 (centres undefined),"inconclusive [activator, single point]"
